Measured values published in PubChem BioAssay AID1768 (National Center for Advancing Translational Sciences (NCATS), 2009).
Hit rate of the full screen: of about 270,000 compounds, about 620 (0.23%) were called active. This list was built around the results that the source calls inconclusive (neither active nor inactive); the mix of calls is not that of the screen. Calls follow the shape of the dose curve; as a rule, active = well fitted inhibition curve with a large enough effect in the polarisation, with a control signal flat (not every such curve was filed as active); inconclusive = small, poorly fitted or top-dose-only effect, or effect the other way, or a change in a side signal; inactive = no such curve, though single readings can be large or run the other way; the % refers to the polarisation. Potencies beside an inconclusive call are fits to weak or partial responses and may not hold up. “Side channel” marks fits to a control or component signal instead of the main read-out.

target: Menin (Homo sapiens) (UniProt O00255); test: qHTS Assay for Inhibitors Targeting the Menin-MLL Interaction in MLL Related Leukemias: Competition With Texas Red Labeled MLL-derived Mutant Peptide; conditions: fluorescence polarization; series mostly up to 61.6 µM
Potency is read from the fitted curve at half-maximal effect; tags tell the direction and shape of the fitted curve or compound fluorescence and quenching.

Sequence of UniProt O00255 (O00255 whole entry, looked up): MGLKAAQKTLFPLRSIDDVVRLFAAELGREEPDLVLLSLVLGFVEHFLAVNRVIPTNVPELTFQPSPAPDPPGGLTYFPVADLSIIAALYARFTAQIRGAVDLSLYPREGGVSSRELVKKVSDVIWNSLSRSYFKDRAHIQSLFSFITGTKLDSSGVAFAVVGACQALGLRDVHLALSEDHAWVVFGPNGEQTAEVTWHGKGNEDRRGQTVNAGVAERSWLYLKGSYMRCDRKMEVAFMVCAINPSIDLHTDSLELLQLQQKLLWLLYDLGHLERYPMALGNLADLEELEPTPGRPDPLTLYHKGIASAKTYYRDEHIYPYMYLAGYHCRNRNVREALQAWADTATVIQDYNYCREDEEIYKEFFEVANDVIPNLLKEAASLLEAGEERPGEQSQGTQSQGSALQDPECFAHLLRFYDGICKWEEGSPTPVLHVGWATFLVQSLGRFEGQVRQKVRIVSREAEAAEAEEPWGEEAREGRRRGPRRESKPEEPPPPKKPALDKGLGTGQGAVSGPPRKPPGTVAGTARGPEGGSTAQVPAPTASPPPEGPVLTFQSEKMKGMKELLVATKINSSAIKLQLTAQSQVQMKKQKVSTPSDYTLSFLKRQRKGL

SMILES | Potency
Cc1nc2ccccn2c1C(=O)NNC(=S)Nc1ccc(Cl)cc1 | inconclusive: 15.8 µM [quencher, side channel, single point]
Cc1ccc(C)c(-c2csc(N/N=C/c3ccco3)n2)c1 | inconclusive: 17.8 µM [quencher, side channel, partial curve]
CC1C(=O)C(=O)C=CN1C (stereo not drawn) | inactive
COc1ccc2[nH]cc(CCCN3C(=O)c4ccccc4C3=O)c2c1 | inconclusive: 28.2 µM [quencher, side channel, single point]
O=C(Cc1cccc2ccccc12)Nc1ccc(OC(F)F)c(Cl)c1 | inconclusive: 28.2 µM [quencher, side channel, partial curve]
C/C(=C\COc1cc(=O)[nH]c2ccccc12)CCC(O)C(C)(C)O (stereo not drawn) | inconclusive: 22.4 µM [inhibitor, partial curve]
COc1cc(OC)cc(-c2nc3cc(C)ccc3o2)c1 | inactive
c1ccc(N2CCN(c3ccccc3)C2c2cccs2)cc1 | inactive
COc1ccccc1[C@@H]1C(c2cccc(Cl)c2)=NN(c2ccccc2)[C@H]1C(=O)N1CCOC1=O | inconclusive: 25.1 µM [inhibitor, single point]
COC(=O)c1cc(NC(=O)/C=C/c2ccc3c(c2)OCO3)cc(C(=O)OC)c1 | inconclusive: 28.2 µM [quencher, side channel, single point]
CC(C)CC(C(=O)Nc1oc(-c2ccco2)c(-c2ccco2)c1C#N)N1C(=O)c2ccccc2C1=O (stereo not drawn) | inconclusive: 11.2 µM [quencher, side channel, partial curve]
NCCCC(=O)N1c2ccccc2Sc2ccc(Cl)cc21 | inconclusive: 11.2 µM [inhibitor, partial curve]
COC(=O)c1c(C(=O)OC)c(-c2ccc(Br)cc2)n2c1CS(=O)C2 (stereo not drawn) | inconclusive: 44.7 µM [inhibitor, partial curve]
Cc1ccc(NC(=O)COC(=O)c2ccc3c(c2)NC(=O)C2CCCN32)cc1 (stereo not drawn) | inconclusive: 14.1 µM [inhibitor, partial curve, poor fit]
Cc1cccc(NC(=O)NCCN2CCN(c3ccccc3)CC2)c1C | inconclusive: 6.31 µM [inhibitor, partial curve]
COc1cc(-c2noc(C)c2-c2ccc3[nH]ccc3c2)cc(OC)c1OC | inconclusive: 35.5 µM [quencher, side channel, single point]
O=C(O)c1cc(N=Nc2ccc(O)c(C(=O)O)c2)ccc1O | active: 39.8 µM
C#CCOCCOCCOCCNc1nc(N2CCN(C(=O)C(Cc3ccc(O)cc3)n3cc(C(N)CC(C)C)nn3)CC2)nc(N2CCN(C(=O)C(Cc3cc4ccccc4[nH]3)n3cc(C(N)C(C)CC)nn3)CC2)n1 (stereo not drawn) | inconclusive: 1.78 µM [fluorescent, side channel, full curve]
Cc1ccccc1NC(=S)NC(=O)/C=C/c1ccco1 | inconclusive: 20 µM [quencher, side channel, single point]
Cc1cc(C)cc(OCCNC(=O)c2cc(S(=O)(=O)N3CCOCC3)ccc2F)c1 | inconclusive: 2.51 µM [inhibitor, full curve, poor fit]

SMILES | Potency
COc1ccc(NC(=O)CN2CCN(c3ccc(F)cc3)CC2)cc1 | inconclusive: 25.1 µM [inhibitor, single point]
COc1ccc(CNc2ncc(-c3ccc(F)cc3)n2C)cc1OC | inconclusive: 8.91 µM [inhibitor, full curve, poor fit]
O=C(Nc1nc(-c2ccccc2)cs1)Nc1ccc(F)cc1F | inconclusive: 10 µM [quencher, side channel, partial curve]
COc1ccc(NCc2nnc(SCC(=O)Nc3cc(C)cc(C)c3)o2)cc1 | inconclusive: 14.1 µM [quencher, side channel, partial curve]
Cc1ccc(Nc2nc3nonc3[nH]c2=O)cc1Cl | inconclusive: 22.4 µM [quencher, side channel, partial curve]
Cc1cc(N2CCN(S(=O)(=O)c3ccc(Cl)c(Cl)c3)CC2)c2ccccc2n1 | inconclusive: 10 µM [fluorescent, side channel, partial curve]
Cc1nn(C)cc1CN(C)Cc1c(C(=O)N(C)Cc2ccccc2)nc2ccccn12 | inconclusive: 10 µM [quencher, side channel, partial curve]
CC#C[C@]1(O)CC[C@H]2C3CCC4=CC(=O)CCC4=C3[C@@H](c3ccc(N(C)C)cc3)C[C@@]21C (stereo partly drawn) | inactive
CCOc1ccc(NS(=O)(=O)c2ccc(OC)c(NC(=O)c3ccc4c(c3)OCCO4)c2)cc1 | inconclusive: 39.8 µM [inhibitor, single point]
O=C(CC(c1ccc(F)cc1)c1ccco1)Nc1nccs1 (stereo not drawn) | inconclusive: 22.4 µM [quencher, side channel, single point]
Cc1ccc(N=C2S/C(=C\c3cn(CC(=O)O)c4ccccc34)C(=O)N2C)cc1 | inconclusive: 28.2 µM [quencher, side channel, single point]
CCN(CC)C(=O)CSc1nc2ccccc2c(=O)n1-c1cccc(OC)c1 | inconclusive: 25.1 µM [fluorescent, side channel, single point]
COc1ccc(-c2cc(=O)c3cc(O)ccc3o2)cc1 | inconclusive: 28.2 µM [inhibitor, partial curve, poor fit]
Cc1c(O)ccc(/C(Cc2ccc3ccccc3n2)=N\O)c1O | inconclusive: 22.4 µM [quencher, side channel, single point]
CCCCCn1ccc(=N)cc1 | inactive
CC1CCN(C(=O)CCCN2C(=O)c3cccnc3Oc3ccc(Cl)cc32)CC1 | inconclusive: 10 µM [inhibitor, single point]
Cc1cc(/C=C2\SC(=O)N(CC(=O)Nc3ccccc3F)C2=O)c(C)n1C | inconclusive: 31.6 µM [inhibitor, single point]
Cc1cccc(/C=C2\CCC(=C3SCCCS3)C2=O)c1 | inconclusive: 31.6 µM [inhibitor, single point]
O=C(c1cc(-c2ccc(Cl)cc2)n[nH]1)N1CCc2ccccc2C1 | inconclusive: 35.5 µM [fluorescent, side channel, single point]
COc1ccc2[nH]c3nc(SC(C)C)nnc3c2c1 | inconclusive: 3.16 µM [inhibitor, partial curve]

SMILES | Potency
CC(=O)N(CCC(Cc1ccccc1)c1ccco1)Cc1ccco1 (stereo not drawn) | inconclusive: 12.6 µM [fluorescent, side channel, partial curve]
C#CCOCCOCCOCCNc1nc(N2CCN(C(=O)[C@H](CCC(=O)O)n3cc(C(N)CC(C)C)nn3)CC2)nc(N2CCN(C(=O)[C@H](Cc3ccc(O)cc3)n3cc(C(N)CC(C)C)nn3)CC2)n1 (stereo partly drawn) | inconclusive: 28.2 µM [fluorescent, side channel, single point]
CCOC(=O)c1cnc2ccc(C)cc2c1Nc1ccc(N2CCOCC2)cc1 | inconclusive: 25.1 µM [fluorescent, side channel, single point]
COc1cnc(-c2ccccn2)nc1Oc1cccc(Cl)c1 | inconclusive: 39.8 µM [inhibitor, single point]
CC1C(=O)N(Cc2ccccc2)c2ccccc2N1C(=O)c1ccccc1 (stereo not drawn) | inconclusive: 35.5 µM [fluorescent, side channel, single point]
O=C(C1CCN(Cc2cc(Cl)ccc2O)CC1)N1CCN(Cc2ccccc2)CC1 | inconclusive: 14.1 µM [inhibitor, partial curve]
O=c1c(-c2ccccc2)nc2cnc(Nc3ccccc3)nc2n1Cc1cccs1 | inconclusive: 1.41 µM [quencher, side channel, full curve, poor fit]
CC(=O)Nc1ccc(N=Cc2ccc[nH]2)cc1 | inconclusive: 44.7 µM [inhibitor, partial curve, poor fit]
O=C(Nc1ccc(SC(F)F)cc1)c1ccc2nccnc2c1 | inconclusive: 15.8 µM [quencher, side channel, partial curve]
CCN(CC)CC#CC(OC)(c1ccccc1)c1ccccc1 | inconclusive: 6.31 µM [fluorescent, side channel, partial curve]
NN/C(=C\[N+](=O)[O-])Nc1ccccc1 | inconclusive: 31.6 µM [quencher, side channel, single point]
COc1cccc(OC)c1C(=O)Nc1nnc(-c2cccs2)s1 | inactive
CSCC[C@H](NC(=O)[C@H]1CC[C@H](CNC(=O)[C@@H]2CCCN2)CC1)C(=O)O | inconclusive: 8.91 µM [inhibitor, partial curve]
COc1ccc(Nc2ncnc3sccc23)cc1 | inconclusive: 17.8 µM [quencher, side channel, partial curve]
Fc1ccc(/C=N/n2c(-c3cccs3)n[nH]c2=S)cc1 | inconclusive: 39.8 µM [quencher, side channel, single point]
COc1ccc(-c2nnc(SCC(=O)Nc3cccc(Cl)c3)o2)cc1 | inconclusive: 39.8 µM [inhibitor, single point]
COc1cc(S(C)=O)ccc1-c1nc2ncccc2[nH]1 (stereo not drawn) | inconclusive: 25.1 µM [inhibitor, single point]
CC(C)(C)c1ccc(C(=O)NCc2ccc(Cl)cc2)cc1 | inconclusive: 35.5 µM [fluorescent, side channel, single point]
